# Results taken from PubChem BioAssay AID1346428 (National Center for Advancing Translational Sciences (NCATS), 2018).
# The whole screen tested about 48,000 compounds, of which about 1,200 (2.5%) were called active. About 2% were inconclusive and are not listed.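 Rule for the calls: active = activation of at least 60% and not above a set upper limit (about 1 call in 100 departs from these limits); inconclusive = activation of 40% to 60%, or above that upper limit; inactive = activation under 40%.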 Some of the results follow.
# Molecular target: Probable G-protein coupled receptor 32 (Homo sapiens) (UniProt O75388)
# Assay: qHTS for Agonists of Human Resolvin D1 Receptor DRV1; note: 0% is about no effect
# Conditions: CHO-K1 GPR32 beta-arrestin PathHunter luminescence, 90 min; at 76.9 µM; stronger effect = higher value; zero percent set by DMSO-only wells
# In short: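 Using DMSO wells as EC0, agonist-induced signal was taken as chemiluminescence from beta-Gal reconstituted upon beta-arrestin recruitment to GPR32 in CHO-K1 cells after 90 min compound treatment.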
# UniProt O75388, sequence (O75388 whole entry, looked up): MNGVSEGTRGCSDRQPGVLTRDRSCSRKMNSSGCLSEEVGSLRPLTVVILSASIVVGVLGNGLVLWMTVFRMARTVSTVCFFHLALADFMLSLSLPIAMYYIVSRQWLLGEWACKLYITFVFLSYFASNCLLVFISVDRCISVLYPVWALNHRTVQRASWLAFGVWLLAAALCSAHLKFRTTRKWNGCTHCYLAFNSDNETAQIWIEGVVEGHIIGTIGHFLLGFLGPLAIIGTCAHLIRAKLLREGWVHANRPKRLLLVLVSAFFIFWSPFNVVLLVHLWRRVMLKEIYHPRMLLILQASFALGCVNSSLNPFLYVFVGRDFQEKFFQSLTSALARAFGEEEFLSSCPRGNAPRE
row,SMILES,activation
1,COC(=O)c1sccc1S(=O)(=O)N(CC(=O)Nc1ccccc1F)c1ccccc1,inactive: -25.3%
2,CCOc1ccc(C(=O)c2oc3ccccc3c2NC(=O)c2cc(-c3ccc(Cl)cc3)on2)cc1,inactive: 14.2%
3,COc1ccc(-c2nnc(SCC(=O)N(C)C3CCCCC3)o2)cc1OC,inactive: 5.37%
4,O=c1oc2c3c(ccc2c2ccccc12)OCN(Cc1ccccc1Cl)C3,inactive: -59%
5,CN(Cc1ccccc1)c1ncnc2c1nnn2C,inactive: -10.5%
6,O=S(=O)(NCC(c1ccco1)S(=O)(=O)c1cccs1)c1ccc(Cl)cc1 (configuration not stated),inactive: -6.61%
7,CCc1nn(CC(=O)N(C)Cc2ccccc2)c(=O)c2cc3sccc3n12,inactive: -10.3%
8,Cc1ccc(CSCCC(=O)NCc2ccc(F)cc2Cl)cc1,inactive: -20.5%
9,CC(=O)c1cccc(NS(=O)(=O)c2cc(-c3cnc(C4CC4)o3)ccc2C)c1,inactive: -5.56%
10,Cc1ccc(C(=O)NCCc2ccc(S(N)(=O)=O)cc2)cc1-n1cnc2cccnc21,inactive: -3.11%
11,Cc1cccc(C(=O)n2nc(-c3cccnc3)nc2NCc2ccccc2)c1,inactive: -34.2%
12,CCn1cc(C(=O)NCCCOC)c(=O)c2cc(S(=O)(=O)N3CCCC3)ccc21,inactive: -1.41%
13,COC(=O)c1c(NC(=O)Cc2coc3ccc(C(C)C)cc23)sc2c1CCC2,inactive: -7.64%
14,O=C(CCCCn1c(=O)c2ccccc2n(CC(=O)Nc2ccc(F)cc2F)c1=O)NCCc1ccccc1,inactive: -0.217%
15,Cc1ccc(NC(=O)Nc2ccccc2OCc2cc(=O)n3ccccc3n2)c(Cl)c1,inactive: -3.12%
16,COc1ccccc1OCc1nc(C#N)c(NCc2ccc(C)cc2)o1,inactive: -25.8%
17,CC(C)(C)OC(=O)N1CCC(c2c(C(=O)N3CCCCC3)cnn2-c2ccccc2Cl)CC1,inactive: -13.4%
18,Cn1c(=O)oc2cc(S(=O)(=O)CCC(=O)NCCc3ccc(Cl)cc3)ccc21,inactive: 1.44%
19,COc1ccc(NCc2cc3cc4c(cc3n(CC(=O)Nc3ccc(C)c(C)c3)c2=O)OCO4)cc1,inactive: -40%
20,CCn1cc(C(=O)O)c(=O)c2cc(F)c(N3CCNCC3)cc21,inactive: -0.644%
21,Cn1c(=O)c2sccc2n2c(CCCC(=O)NC3CCCCC3)nnc12,inactive: -1.39%
22,Cc1ccc(Cl)cc1N1CCN(S(=O)(=O)c2cc(Br)cc3c2N(C(=O)C2CC2)CC3)CC1,inactive: 2.13%
23,COc1ccc(-c2nn(-c3ccccc3)cc2C2NC(=O)NC(C)=C2C(=O)OC(C)C)cc1Cl (configuration not stated),inactive: 6.93%
24,CC(=O)Nc1ccc(NC(=O)C(Cc2ccccc2)NS(=O)(=O)c2ccc3c(c2)oc(=O)n3C)cc1 (configuration not stated),inactive: -12.5%
25,CCOC(=O)CC(NC(=O)CCc1c(C)nc2c(c1C)c(=O)n(C)c(=O)n2C)c1ccc(OCC)c(OC)c1 (configuration not stated),inactive: -12.8%
26,CCOC(=O)c1cc(-c2ccc(F)cc2)n(CCC(=O)Nc2nc3ccc(OC)cc3s2)c1C,inactive: -31.1%

row,SMILES,activation
1,CC(C)c1ccc(NS(=O)(=O)c2ccc3[nH]cc(C(=O)NCCc4ccccc4)c(=O)c3c2)cc1,inactive: -14.1%
2,Cc1ccc(-n2nc(C)c3c(C)cc(=O)n(CC(=O)NC(C)c4ccccc4)c32)cc1 (configuration not stated),inactive: -2.04%
3,COc1ccc(S(=O)(=O)N(CC(=O)Nc2cc(Cl)ccc2C)Cc2ccccc2)cc1OC,inactive: -4.91%
4,CCOc1ccc(S(=O)(=O)Nc2cc3c(C(=O)OC)c(COC)oc3c3ccccc23)cc1,inactive: 3.65%
5,CCn1nc(C)c2c(-c3ccccc3)cc(=O)n(C(C)C(=O)NCCc3ccc(OC)c(OC)c3)c21 (configuration not stated),inactive: -17.5%
6,CCOc1cc(-c2ccc(OC(=O)c3ccc(OC)cc3)c(OC)c2)cc(=O)c2c(C)oc(C)c12,inactive: -22.1%
7,COc1ccc(N2C(=O)Cc3cc(OC)c(OC)cc3C2c2ccc(F)cc2)cc1 (configuration not stated),inactive: 9.19%
8,COc1ccc(S(=O)(=O)Nc2cc3c(C(=O)OC(C)C)c(C)oc3c3ccccc23)cc1,inactive: 37.8%
9,COc1ccc(CNC(=O)CN2C(=O)CCn3nc(-c4ccccc4)cc32)c(OC)c1,inactive: -1.59%
10,CC(CCc1ccccc1)NC(=O)CSc1n[nH]c(-c2ccc(F)cc2)n1 (configuration not stated),inactive: 21.6%
11,COc1ccc(-c2ccc(CCC(=O)O)n2-c2ccccc2O)cc1,inactive: -7.88%
12,CC1=C(C(=O)Nc2ccc(C)cc2C)C(c2ccc(O)cc2)n2nc(SCC(=O)c3ccc(C)cc3)nc2N1 (configuration not stated),inactive: 0.351%
13,Cn1c(Nc2ccc(Cl)cc2)cc(=O)n(C)c1=O,inactive: -17%
14,Cc1oc2ncn(C)c(=O)c2c1C(=O)NCc1ccc(Cl)cc1,inactive: -6.99%
15,COc1ccc(C(=O)c2sc3nc(-c4ccc(F)cc4)ccc3c2N)cc1,active: 97.7%
16,COc1ccc(-c2nc(Cn3c(SCc4cccc(C(F)(F)F)c4)nc4cccnc43)c(C)o2)cc1OC,inactive: -17.9%
17,COc1ccc(OC)c(CNC(=O)C2CCCCN2S(=O)(=O)c2ccc(F)cc2)c1 (configuration not stated),inactive: -2.69%
18,COc1ccc(C(=O)Nc2ccc(S(=O)(=O)N(Cc3ccccc3)c3ccccc3)cc2)cc1,inactive: -0.507%
19,Cc1cc(OCC(O)CN2CCN(c3cccc(Cl)c3)CC2)ccc1Cl (configuration not stated),active: 69.8%
20,COc1ccc(-c2nn3c(=O)cc(CN4CCN(S(=O)(=O)c5ccc(C)cc5)CC4)nc3s2)cc1,inactive: 13.6%
21,CC(C)Cc1nn2c(=O)cc(COC(=O)c3ccccc3NC(=O)C3CCCCC3)nc2s1,inactive: -15.8%
22,CCCc1nn2c(=O)cc(COC(=O)c3ccc(NC(=O)C4CCCCC4)cc3)nc2s1,inactive: -31.5%
23,Cc1cc(S(=O)(=O)Nc2ccc(C(=O)O)cc2)c(C)c(S(=O)(=O)c2ccc(Cl)cc2)c1,inactive: -28.2%
24,COc1ccc(C)cc1NC(=O)c1cn(C)c(=O)c2cc(OC)c(OC)cc12,inactive: 15.9%
25,COc1cccc(NS(=O)(=O)c2ccc3c(c2)N(C)C(=O)CC(=O)N3C)c1,inactive: 1.53%
26,CCc1nnc2c(Nc3ccc(N(CC)CC)cc3C)nc3ccccc3n12,inactive: -19.8%
